From PubChem BioAssay (NCI)
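Grown in 96-well plates, cells were treated for 48 hours with each compound at five concentrations. Insufficient inhibition: endpoint recorded as highest concentration tested. The concentration for 50% growth inhibition is given as GI50.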 The source holds more than one record for some entries. The other results are left out here. There may be further records. For some of these results: A record mostly stands for its own series of concentrations, which the source does not state; a value can be the end of its range. For some of these results: Values given together are repeats in other runs, samples, wells, individuals or studies. What stands in brackets tells the records apart. A, B and so on number the origins entry by entry.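 TGI is the concentration that stops growth completely.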

What was measured:
Experiment in all cases: growth of human tumour cells (NCI), 48 h
[1] = tested on: DU-145 prostate
[2] = tested on: NCI-H226 lung
[3] = tested on: NCI/ADR-RES ovarian
[4] = tested on: OVCAR-3 ovarian
[5] = tested on: UO-31 renal
[6] = tested on: A498 renal
[7] = tested on: A549 NSCLC
[8] = tested on: ACHN renal
[9] = tested on: CCRF-CEM leukemia
[10] = tested on: HCT-116 colon
[11] = tested on: HL-60(TB) leukemia
[12] = tested on: HOP-62 NSCLC
[13] = tested on: HT29 colon
[14] = tested on: MCF7 breast
[15] = tested on: MOLT-4 leukemia
[16] = tested on: OVCAR-8 ovarian
[17] = tested on: RXF 393 renal
[18] = tested on: NCI-H23 lung
[19] = tested on: T-47D breast
[20] = tested on: K-562 leukemia
[21] = tested on: SR leukemia

COC(=O)CC12CC(NC(=O)c3csc([C@@H](C[C@H](C(C)C)N(C)C(=O)[C@@H](NC(=O)[C@H]4CCCCN4C)C(C)C)OC(C)=O)n3)(C1)C2
TGI [1]: 467 nM and 29.8 nM | TGI [2]: 481 nM and > 33.3 µM | TGI [3]: 585 nM and > 33.3 µM | TGI [4]: 185 nM and 11.7 nM | GI50 [5]: 31.4 nM and 860 nM

CC[C@@]1(O)C(=O)OCc2c1cc1n(c2=O)Cc2cc3c(OC)cccc3nc2-1
TGI [6]: 91.7 nM and 2.06 µM | GI50 [7]: 7.42 nM [1 test] and 262 nM [mean of 3 tests] | TGI [8]: 31 nM [1 test] and 571 nM [mean of 3 tests] | TGI [9]: 5.05 nM and 454 nM | GI50 [10]: 21.5 nM and > 100 µM | TGI [11]: 15.4 nM and 245 nM | TGI [12]: 56.2 nM [1 test] and 641 nM [mean of 3 tests] | GI50 [13]: 67 nM [1 test] and 847 nM [mean of 3 tests] | GI50 [14]: 5.41 nM and > 100 µM | TGI [15]: 30.6 nM and 2.72 µM | GI50 [3]: 7.09 nM and > 100 µM | GI50 [16]: 7.67 nM [1 test] and 312 nM [mean of 3 tests] | TGI [17]: 21.3 nM and 1.95 µM

Nc1cc2c(c3ccccc13)C(CCl)CN2C(=O)c1cc2cc(NC(=O)c3cc4ccccc4o3)ccc2[nH]1 (stereo not drawn)
GI50 [1]: 0.238 nM and > 110 nM | GI50 [12]: 1.32 nM and > 110 nM | GI50 [18]: 0.786 nM and > 110 nM | TGI [19]: 237 nM and 35 µM

COc1cccc(Nc2ncnn3ccc(CN4CC[C@@H](N)[C@H](O)C4)c23)c1
GI50 [19]: 2.88 µM [sample A, mean of 2 tests] and 149 nM [sample B, mean of 2 tests]

CC[n+]1c(/C=C/c2ccc(N3CCCC3)cc2)cccc1/C=C/c1ccc(N2CCCC2)cc1
TGI [11]: 336 nM and > 100 µM | GI50 [20]: 31.7 nM and 621 nM | TGI [15]: 613 nM and > 100 µM | GI50 [21]: 20.3 nM and 408 nM | TGI [21]: 751 nM and > 100 µM
